Measurements taken from PubChem BioAssay AID485281 (National Center for Advancing Translational Sciences (NCATS), 2010).
In all, about 350,000 compounds went through this assay and about 260 (0.074%) were called active. Inconclusive results, whose numbers are uncertain, are shown with a selection of clear calls. Calls come from the whole dose curve; as a rule, active = well fitted inhibition curve with a large enough effect; inconclusive = small, poorly fitted or top-dose-only effect; inactive = no such curve, though single readings can be large or run the other way. Potencies beside an inconclusive call are fits to weak or partial responses and may not hold up.

target: Ferritin light chain (Equus caballus) (UniProt P02791); experiment: qHTS Assay for Identification of Novel General Anesthetics; settings: apoferritin/1-aminoanthracene competitive binding, fluorescence; activity change, negative = displacement: at 77.5 µM (top of the series); note: nearly all actives have a fitted effect of over 20% in size
Outline: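 Probe: 1-aminoanthracene (50% saturated, PBS). Protein: horse-spleen apoferritin, 10 uM. Incubation: 10 min, room temperature. Detection: 380 nm excitation, 535 nm emission. Analysis: normalized response, four-parameter Hill.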
% is set by controls: 0 for no effect and ±100 for the full control effect; potency is the fitted concentration of half-maximal effect; tags give direction and shape of the fitted curve.

UniProt P02791, sequence (P02791 whole entry, looked up): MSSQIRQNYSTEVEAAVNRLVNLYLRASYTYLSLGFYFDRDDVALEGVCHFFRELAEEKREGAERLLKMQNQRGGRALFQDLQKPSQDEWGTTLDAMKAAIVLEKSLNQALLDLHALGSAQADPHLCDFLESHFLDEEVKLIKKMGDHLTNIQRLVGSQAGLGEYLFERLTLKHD

Compound	Potency	activity change, negative = displacement
COc1ccc(C2c3c(-c4c(C)cc(C)cc4O)n[nH]c3C(=O)N2Cc2ccco2)cc1 (stereo unspecified)	inconclusive: 11.2 µM [inhibitor, single point]	–
COCC1CCCN(C(=O)c2ccc3oc(CCCc4ccccc4)nc3c2)C1 (stereo unspecified)	–	inactive: -22.1%
Cc1ccc(NC(=O)C(OC(=O)c2cnc(C)cn2)c2ccccc2)c([N+](=O)[O-])c1 (stereo unspecified)	inconclusive: 35.5 µM [inhibitor, partial curve]	–
COc1cccc(-c2nc(CS(=O)(=O)CC(=O)NCc3ccc(C)cc3)c(C)o2)c1	inconclusive: 25.1 µM [inhibitor, partial curve]	–
CCOC(=O)c1c(-c2ccccc2)csc1NC(=O)/C(C#N)=C/c1ccc(O)c(OC)c1	–	inactive: -7.06%
C=CCn1c(CCC(=O)O)ccc1-c1ccccc1	–	inactive: -2.04%
COc1ccc(S(=O)(=O)N2CCN(C(=S)NCCc3ccccc3)CC2)cc1	–	inactive: 1.82%
CCN(CC)S(=O)(=O)c1ccc(C(=O)Nc2ccc3c(c2)OCCO3)cc1	inconclusive: 39.8 µM [inhibitor, partial curve]	–
CC/C(Cc1ccccc1)=N/NC(=O)CNC(=O)c1ccc(Cl)cc1Cl	inconclusive: 12.6 µM [inhibitor, partial curve]	–
CCOC(=O)C(CC)Sc1nnc2c3cc(C)ccc3n(C)c2n1 (stereo unspecified)	inconclusive: 28.2 µM [inhibitor, partial curve]	–
Cc1n[nH]c(C)c1C(=O)CC1(O)C(=O)N(Cc2ccccc2)c2ccc(Br)cc21 (stereo unspecified)	inconclusive: 39.8 µM [inhibitor, single point]	–
Cc1ccc(NC(=O)CSc2n[nH]c(-c3ccco3)n2)cc1	inconclusive: 35.5 µM [inhibitor, partial curve]	–
Cc1ccc(-c2nc3ccc(Cl)cc3n2OC(C)C(=O)O)cc1 (stereo unspecified)	–	inactive: -3.16%
CCc1ccc(NC(=O)CCc2ccc(C)o2)cc1	inconclusive: 28.2 µM [inhibitor, partial curve]	–
C/C(=N\NC(=O)c1cccc(F)c1)c1ccc(NC(=O)Cc2ccccc2)cc1	–	inactive: -11.9%
CCc1c(C)sc(NC(=O)C2CC2c2ccccc2)c1C(N)=O (stereo unspecified)	inconclusive: 35.5 µM [inhibitor, partial curve]	–
COc1cccc(-c2nnc(SCC(=O)NCc3ccc4c(c3)OCO4)n2Cc2ccco2)c1	inconclusive: 15.8 µM [inhibitor, partial curve]	–
O=S(=O)(Cc1ccccc1)N1CCc2ccccc21	inconclusive: 39.8 µM [inhibitor, partial curve]	–
COc1ccc(Nc2nc(N)c(C(=O)c3ccc(F)cc3)s2)cc1	–	inactive: -21.2%
C(=N\n1cnnc1SCc1ccccc1)/c1ccco1	inconclusive: 25.1 µM [inhibitor, partial curve]	–
CC1CC(C)CN(C(=O)CSC2=Nc3ccccc3C3=NC(Cc4c[nH]c5ccccc45)C(=O)N23)C1 (stereo unspecified)	inconclusive: 8.91 µM [inhibitor, full curve]	–
CSc1ccccc1OCc1cc(C(=O)N(C)Cc2cc(C)[nH]n2)no1	inconclusive: 35.5 µM [inhibitor, partial curve]	–
O=C(O)c1cc([N+](=O)[O-])c(NCCC2=CCCCC2)c([N+](=O)[O-])c1	inconclusive: 31.6 µM [inhibitor, partial curve]	–

Compound	Potency	activity change, negative = displacement
Cc1csc(NC(=O)Cc2ccccc2Cl)n1	–	inactive: -17.7%
CCN(C(=O)/C=C/c1ccccc1)C1CCCCC1	inconclusive: 12.6 µM [inhibitor, partial curve]	–
Cc1ccc(NC(=O)c2cc(S(=O)(=O)N3CCCC(C)C3)cn2C)c(Br)c1 (stereo unspecified)	–	inactive: -1.64%
COc1ccccc1Nc1nnc(SCC2CCCCO2)s1 (stereo unspecified)	inconclusive: 12.6 µM [inhibitor, partial curve]	–
CCC(C(=O)OCC(=O)Nc1cccc(C(C)=O)c1)c1ccccc1 (stereo unspecified)	inconclusive: 20 µM [inhibitor, partial curve]	–
CC(=O)N(C)c1ccc(OCC(O)Cn2c3ccc(Cl)cc3c3cc(Cl)ccc32)cc1 (stereo unspecified)	–	inactive: -1.12%
COc1cccc(Cn2nnc(C(=O)NCc3ccc4c(c3)OCO4)c2N)c1	inconclusive: 5.62 µM [inhibitor, full curve]	–
Cc1n[nH]c(C)c1CCOc1ccc(C(C)C)cc1	inconclusive: 31.6 µM [inhibitor, partial curve]	–
COc1ccc(C(=O)Nc2ccc(SC(F)F)cc2)cc1	–	inactive: -10.1%
O=C(/C=C/N1CCOCC1)c1coc2ccccc12	inconclusive: 28.2 µM [inhibitor, partial curve]	–
COc1ccc2c(c1)CCc1c(C(=O)Nc3cc(C)n(Cc4ccc(Cl)cc4)n3)noc1-2	–	inactive: -3.54%
Cc1cc(=O)oc2cc(OCC(O)CN3CCc4ccccc4C3)ccc12 (stereo unspecified)	–	inactive: -23.4%
CCOc1cc(C(=S)N2CCOCC2)ccc1OC(=O)c1ccccc1	inconclusive: 20 µM [inhibitor, partial curve]	–
O=C(CSc1nc2ccccc2s1)N1CCCCC1	inconclusive: 31.6 µM [inhibitor, single point]	–
Cc1ccc2nc(N3C(=O)C(O)=C(C(=O)c4ccco4)C3c3ccc(C)o3)sc2c1 (stereo unspecified)	–	inactive: -17.6%
CSc1ncccc1C(=O)NC(C)C1CC2CCC1C2 (stereo unspecified)	inconclusive: 20 µM [inhibitor, partial curve]	–
O=C(COC(=O)CSc1ccc2ccccc2c1Br)NC1CC1	inconclusive: 35.5 µM [inhibitor, partial curve]	–
CCOC(=O)c1[nH]c2ccccc2c1CCCN1C(=O)c2ccccc2C1=O	inconclusive: 15.8 µM [inhibitor, partial curve]	–
COc1cc(/C=C/C(=O)c2ccc(Cl)s2)cc(OC)c1O	inconclusive: 50.1 µM [inhibitor, single point]	–
CCc1cccc(C)c1NC(=O)c1cccc(N(C)C)c1	inconclusive: 39.8 µM [inhibitor, partial curve]	–
CCc1ccc(-c2nc3ccc(Br)cc3c(C(=O)O)c2C)s1	inactive	–
C(=N\Nc1nc2ccccc2[nH]1)/c1ccccn1	–	inactive: -7.95%
COc1ccc(OC)c(NC(=O)c2cccc(N3C(=O)C4C5CCC(C5)C4C3=O)c2)c1 (stereo unspecified)	inconclusive: 17.8 µM [inhibitor, partial curve]	–
